# The list shows a part of the results. The full chains were built here from the parent and the listed change. Values near 0.05 are background.
# B1: TEV protease; numbered along this chain (parent)
# chain: MGESLFKGPRDYNPISSSICHLTNESDGHTTSLYGIGFGPFIITNKHLFRRNNGTLVVQSLHGVFKVKDTTTLQQHLVDGRDMIIIRMPKDFPPFPQKLKFREPQREERICLVTTNFQTKSMSSMVSDTSCTFPSGDGIFWKHWIQTKDGQCGSPLVSTRDGFIVGIHSASNFTNTNNYFTSVPKNFMELLTNQEAQQWVSGWRLNADSVLWGGHKVFMVKPEEPFQPVKEATQL
# Variants of: B1
# Experiment: raw area under fraction-flipped curve 0-4 h after induction (AUC4h, not background-subtracted), DNA-recorder readout of cleavage of the substrate (dimensionless); higher = more cleavage of the substrate by the protease variant
# Settings: temperature: 34 °C; time window: 0-4 h after rhamnose induction
# Description: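 In vivo DNA recorder in E. coli TOP10(DE3) ΔrhaA at 34 °C. Each TEVp single-site mutant (parent TEVp 0) is paired with a single-site variant of the 7-mer TEVs (canonical ENLYFQ|S). The substrate sits between flexible linkers in a Bxb1-sfGFP-TEVs-SsrA fusion, so cleavage stabilises Bxb1 and speeds flipping of a recombination array, read by NGS. The value is the raw area under the fraction-flipped curve over 0-4 h after rhamnose induction (AUC4h), with ≥20 reads per time point. It is not background-subtracted; inactive controls average about 0.047.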
# 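Also: Bxb1 expression induced with 0.2% (w/v) L-rhamnose at OD600 near 0.5, cultures sampled hourly, flipped fraction per protease–substrate barcode pair counted by paired-end Illumina sequencing.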
Variant,area with substrate ENLYFQA,area with substrate ENLYFQC,area with substrate ENLYFQF,area with substrate ENLYFQG,area with substrate ENLYFQI,area with substrate ENLYFQK,area with substrate ENLYFQL,area with substrate ENLYFQM,area with substrate ENLYFQN,area with substrate ENLYFQP,area with substrate ENLYFQR,area with substrate ENLYFQS,area with substrate ENLYFQT,area with substrate ENLYFQV,area with substrate ENLYFQW,area with substrate ENLYFQD,area with substrate ENLYFQH,area with substrate ENLYFQY,area with substrate ENLYFQE,area with substrate ENLYFQQ
G39L,0.0293,0.0364,0.0437,0.0385,0.0094,0.0364,0.0314,0.0358,0.0234,0.0354,0.0434,0.043,0.0642,0.0144,0.0496,,,,,
G39Y,0.0392,0.0417,0.0499,0.0525,0.045,0.036,,0.0495,0.0452,0.0477,0.0411,0.0465,0.0424,,,0.0475,0.0357,,,
F41A,0.078,0.099,,0.0918,0.0604,0.0636,0.0354,0.0925,,,0.0676,0.0828,0.0604,,,0.0462,0.0705,0.0576,,
F41G,0.0734,0.0826,,0.0716,0.0338,,,,0.0734,0.0521,0.0422,0.0747,0.0486,,0.0322,0.0432,0.0594,0.0771,0.0558,
F41P,0.0479,,0.0553,0.0193,0.0469,0.0485,0.0463,0.0483,0.038,0.0423,0.0532,0.0491,,0.0632,0.0541,0.0524,,0.0581,,
I42V,0.127,,,0.112,0.0757,0.0666,0.0557,0.0748,0.081,,0.0735,0.104,0.0709,0.0406,0.062,,0.0754,,0.0757,
I43H,0.0435,0.0337,0.0219,0.0449,0.0405,,0.0517,,0.0411,0.0408,0.0423,0.0432,0.0523,,,0.0399,,0.0356,,0.0298
T44I,0.0679,0.0649,0.0517,,,0.0553,0.0555,,0.0537,0.0598,0.0605,0.0594,0.0592,0.0576,0.0666,0.0544,0.0517,,,
T44N,0.044,0.0544,,,0.0492,0.048,0.0541,0.0519,0.0416,,0.0542,0.0461,0.0454,0.0512,0.0498,0.0462,0.0367,,,
N45E,0.066,0.0498,,0.0653,0.0691,0.0556,0.0527,0.0519,0.0581,0.0543,0.0558,0.0584,0.0616,0.0521,0.0515,,0.0544,0.0706,,0.0588
F49D,0.0496,0.0537,0.0625,0.052,0.0524,,0.0555,0.0528,0.059,0.044,0.0545,0.0554,,,,,,0.0304,0.0609,0.0136
F49Q,0.0631,0.0661,0.0378,0.0608,0.0547,0.0427,,0.0599,0.0571,0.0496,0.0629,0.0604,,,0.0074,,,,,0.0667

# Source: the supplement of paper PMC12217912
